Test results as given in the RNAGym collection of RNA variant scans (doi:10.7554/elife.90254).
The source gives no read counts; variants with many changes may rest on few reads.

B1: OR4K15 (parent)
chain: GUUAACGGUCAUAGGCCAUGGAAACUAGGAGCACCAUUUCGCUGCCAGUGAAGAAAUGAACAAAGAAAAUCUGGGCCAGGCAGGCAUCAAAAGAAAUAGUCUUGCGCUCAACCAGAAAGUCUGUAAUCAUUUUAAGGGUA

Variants of: B1
Assay: self-cleavage, relative activity (ratio to wild type); higher = more cleavage; in vitro, sequencing; the parent is a self-cleaving ribozyme

Row | Variant | self-cleavage
1 | GUUAACGGUCAUAGGCCAUGGAAACAAGGGGCACCAUUUCGCUGCCAGUGAAGAAAUGAACAAAGGAAAUCUGGGCCAGGCAGGCAUCAAAAGAAAUAGUCUUGCGCUCAACCAGAAAGUCUGUAAUCAUUUUAAGGGUA | 0.87
2 | GUUAACGGUCAUAGGCCAUGGAAACAAGGAGCACCGUUUCGCUGCCAGCGAAGAAAUGAACAAAGAAAAUCUGGGCCAGGCAGGCAUCAAAAAAAAUAGUCUUGCGCUCAACCAGAAAGUCUGUAAUCAUUUUAAGGGUA | 1.75
3 | GUUAACGGUCAUAGGCCAUGGAAACAAGGAGCACCUUUUCGCUGCCAGCGAAGAAAUGAACAAAGAAAAUCUGGGCCAGGCAGGCAUCAAAAGAAAUAGUCUUGCGCUCAACCAGAAAGUCUGUAAUCAUUUUAAGGGUA | 1.5
4 | GUUAACGGUCAUAGGCCAUGGAAACAAGGAGCACCAUUUCGCUGCCAGUGGAGAAAUGAACAAAGAGAAUCUGGGCCAGGCAGGCAUCAAAAGAAAUAGUCUUGCGCUCAACCAGAAAGUCUGUAAUCAUUUUAAGGGUG | 1
5 | GUUAACGGUCAUAGGCCAUGGAAACAAGGAGCACCAUUUCGCUGCCAGUGGAGAAAUGAACAAAGAAAAUCUGGGCCAGGCAGGCAUCAAAAGGAAUAGUCUUGCGCUCAACCAGAAAGUCUGUAAUCAUUUUAAGGGUA | 1.73
6 | GUUAACGGUCAUAGGCCAUGGAAACAAGGAGCACCAUUUCGCUGCCAGUGAGGAAAUGAACAAAGAAGAUCUGGGCCAGGCAGGCAUCAAAAGAAAUAGUCUUGCGCUCAACCAGAAAGUCUGUAAUCAUUUUAAGGGUA | 1.63
7 | GUUAACGGUCAUAGGCCAUGGAAACAAGGAGCACCAUUUCGCUGCCAGUGAAGAAAUGAACAAGGAAAAUCUGGGCCGGGCAGGCAUCAGAAGAAAUAGUCUUGCGCUCAACCAGGAAGUCUGUAAUCAUUUUAAGGGUA | 0.06
8 | GUUAACGGUCAUAGGCCAUGGAAACAAGGAGCACCAUUUCGCUGCCAGUGAAGAAAUGAACAAAGUAAAUCUGGGCCAGGCAGGCAUCAAAAGAAAUAGUCUUGCGCUCAACCAGAGAGCUUGUAAUCAUUUUAAGGGUA | 1.71
9 | GUUAACGGUCAUAGGCCAUGGAAACAAGGAGCACCAUUUCGCUGCCAGUGAAGAAAUGAACAAAGAGAAUCUGGGCCAGGCAGGCAUCAAAAGAAAUAGUCUUGCGCUCAACCAGAAAGUCCGUAAUCAUUUUAAGGGUA | 0.65
10 | GUUAACGGUCAUAGGCCAUGGAAACAAGGAGCACCAUUUCGCUGCCAGUGAAGAAAUGAACAAAGAAAGUCUGGGCCAGGCAGGCAUCAAAAGAAAUAGUCUUGCGCUCAGCCAGAAAGUCUGUAAUCAUUUUAAGGGUA | 0.02
11 | GUUAACGGUCAUAGGCCAUGGAAACAAGGAGCACCAUUUCGCUGCCAGUGAAGAAAUGAACAAAGAAAAUCUGGGCCAGGCAGGCAUCAGAAGAAACAGUCUUGCGCUCAACCAGAAAGUCUGUAAUCAUUUUAAGGGUA | 1.02
12 | GUUAACGGUCAUAGGCCAUGGAAACAAGGAGCACCAUUUCGCUGCCAGUGAAGAAAUGAACAAAGAAAAUCUGGGCCAGGCAGGCAUCAAAGGAAAUAGUCUUGCGCUCAACCAGAAAGUCUGUAAUCACUUUUAGGGUA | 0.86
13 | GUUAACGGUCAUAGGCCAUGGAAACAAGGAGCACCAUUUCGCUGCCAGUGAAGAAAUGAACAAAGAAAAUCUGGGCCAGGCAGGCAUCAAAUGAAAUAGUCCUGCGCUCAACCAGAAAGUCUGUAAUCAUUCUAAGGGUA | 2.27
14 | GUUAACGGUCAUAGGCCAUGGAAACAAGGAGCACCAUUUCGCUGCCAGUGAAGAAAUGAACAAAGAAAAUCUGGGCCAGGCAGGCAUCAAAAGAAGUAGUCUUGCGCUCAACCAGAAAGUCUGUAAUCAUUUUAAGGGAA | 2.05
15 | GUUAACGGUCAUAGGCCAUGGAAACAAGGAGCACCAUUUAGCCGCCAGUGAAGAAAUGAACAAAGAAAAUCUGGGCCAGGCAGGCAUCAAAAGAAAUAGUCUUGCGCUCAACCAGGAAGUCUGUAAUCAUUUUAAGGGUA | 0.97
16 | GUUAACGGUCAUAGGCCAUGGAAACAAGGAGCACCAUUUCGCUGCCAGUGAAGAAAUGAACAAAGAAAAUCUGGUCCAGGCAGGCAUCAAGAGAAAUAGCCUUGCGCUCAACCAGAAAGUCUGUAAUCAUUUUAAGGGUA | 0.15
17 | GUUAACGGUCAUAGGCCAUGGAAACAAGGAGCACCAUUACGCUGCCAGUGAAGAAAUGAACUAAGAAAAUCUGGGCCAGGCAGGCAUCAAAAGAAAUAGUCUUGCGCUCAACCAGAAAGUCUGUAAUCAUUUUAAGGGUA | 1.25
18 | GUUAACGGUCAUAGGCCAUGGAAACAAGGAGCACCAUUUCGCUGCCAGCGAAGAAAUGAACAAAGAAAAUCUGGGCCAGGCAGGCAUCAAAAGAAAUAGUCUUGCGCUCAACCAGAAAGUCUGUAAUCAUUUUAAGGGUG | 1.63
19 | GUUAACGGUCAUAGGCCAUGGAAACCUGGAGCACCACUUCGCUGCCAGUGAAGAAAUGAACAAAGAAAAUCUGGGCCAGGCAGGCAUCAAAAGAAAUAGUCUUGCGCUCAACCGGAAAGUCUGUAAUCAUUUUAAGGGUA | 0.46
20 | GUUAACGGUCAUAGGCCAUGGAAACCAGGGGCACCAUUUCGCUGCCGGUGAAGAAAUGAACAAAGAAAAUCUGGGCCAGGCAGGCAUCAAAAGAAAUAGUCUUGCGCUCAACCAGAAAGUCUGUAAUCAUUUUAAGGGUA | 0.07
